The supplement of paper PMC3334620
The full ranking holds about 33,000 sequences; the median of “E-score (-0.5 to 0.5)” is about -0.012, and the highest 2% start at about 0.29. The list shows a part of the results.

Each sequence was assayed against T1, Ybr033w (UniProt P38073) (assay: PBM E-score (8-mer binding enrichment) (E-score (-0.5 to 0.5)); higher = stronger / more preferred TF binding; most listed sequences are background and not binding sites). Conditions: protein concentration: 200 nM; construct: GST-full length.
T1 sequence: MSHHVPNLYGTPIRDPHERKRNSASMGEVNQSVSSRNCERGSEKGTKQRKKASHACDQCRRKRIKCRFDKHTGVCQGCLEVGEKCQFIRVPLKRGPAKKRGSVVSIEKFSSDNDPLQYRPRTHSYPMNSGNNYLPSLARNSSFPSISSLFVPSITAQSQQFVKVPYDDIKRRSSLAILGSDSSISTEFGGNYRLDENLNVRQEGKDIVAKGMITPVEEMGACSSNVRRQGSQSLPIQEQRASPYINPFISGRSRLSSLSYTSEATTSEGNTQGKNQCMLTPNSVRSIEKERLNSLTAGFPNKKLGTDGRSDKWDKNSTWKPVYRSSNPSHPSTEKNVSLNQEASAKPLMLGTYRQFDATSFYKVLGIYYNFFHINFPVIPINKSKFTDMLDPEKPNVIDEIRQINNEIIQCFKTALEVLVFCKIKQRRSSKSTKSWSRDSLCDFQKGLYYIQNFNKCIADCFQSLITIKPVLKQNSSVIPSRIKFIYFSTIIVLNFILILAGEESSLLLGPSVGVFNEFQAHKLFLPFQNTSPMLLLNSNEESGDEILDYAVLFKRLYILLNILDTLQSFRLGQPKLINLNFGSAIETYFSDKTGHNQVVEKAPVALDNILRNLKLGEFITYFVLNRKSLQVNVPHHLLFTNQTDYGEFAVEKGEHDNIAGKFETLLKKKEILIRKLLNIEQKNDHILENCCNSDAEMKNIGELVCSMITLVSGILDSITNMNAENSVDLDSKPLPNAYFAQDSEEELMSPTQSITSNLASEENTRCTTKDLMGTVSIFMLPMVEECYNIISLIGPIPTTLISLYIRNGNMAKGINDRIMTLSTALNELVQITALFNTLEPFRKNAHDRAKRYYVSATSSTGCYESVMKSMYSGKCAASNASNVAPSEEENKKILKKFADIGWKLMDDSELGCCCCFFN
In short: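 Yeast transcription factors carrying a GST tag, as full-length proteins or DNA-binding domains, were produced by PURExpress in vitro transcription/translation. About 100-200 nM protein was applied to universal all-10-mer Agilent arrays, double-stranded by primer extension on fresh or once-stripped slides. Bound protein was detected with fluorescent anti-GST, and scans were normalised with masliner. The Universal PBM Analysis Suite gave each ungapped eight-base word, pooled with its reverse complement, an E-score, a modified Wilcoxon-Mann-Whitney statistic.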

Sequence | PBM E-score
GACTTCTC | 0.113
CGAAAGCA | 0.169
AGGTAGAC | -0.212
ATAGGGTC | -0.169
CAACGTGG | -0.00282
ACCATTAC | 0.0447
CCAACCCC | -0.15
TGCACCCA | -0.062
GTTAGCTA | -0.0877
ATCAAATG | 0.216
GCAGACAC | 0.0165
GTTAAGCA | -0.0464
CCGGAATA | 0.412
AGAATGCA | 0.178
CGGCATGC | -0.102
ACTAGGGG | -0.318
TGCCTACA | -0.0912
AGGTATAA | 0.226
CGTCGTGC | 0.104
GCGGGGAC | -0.22
GTGGTTAA | 0.185
AATGTAAA | 0.21

Sequence | PBM E-score
AAGTGTCG | 0.158
CGTCGGTC | 0.0622
TACTTCCA | 0.0981
ATCCACAC | -0.00864
GAGCACGA | -0.022
CGCGCTAG | -0.0223
ACTAATCG | 0.122
GCCATACA | 0.107
GATGATCA | 0.0749
GGCCGTAA | -0.0992
ATAGGAGA | -0.305
AGCTAGAT | -0.0653
CCCCTTGA | -0.0989
TAGGTTCA | 0.133
CCATATGG | -0.163
AAGCAGGA | -0.0289
TCTGCCAA | -0.0421
GGCCTTAA | -0.00592
AATGCGGA | 0.114
AGACGATA | 0.0503
GGGCTGTA | -0.217
TACCGGTA | 0.0603

Sequence | PBM E-score
ATGAGAGA | 0.126
ATGTGACC | -0.0585
AACCAAGT | 0.115
CTGAGTCA | -0.0168
CATACCGA | -0.052
CCCCCAGC | -0.282
AGTCTGCC | -0.0468
AACCGAAA | 0.167
AAGACTTA | 0.00248
AGACCTGC | -0.179
CGACTGGA | -0.17
GGTCCCAA | -0.145
CCTGGTCA | -0.128
CACGCATG | -0.112
AGATCGTG | -0.0279
AAGGCCCA | -0.191
AATCATCT | 0.0572
ACCTATCA | -0.0374
CTATACGA | 0.0101
CACGGCGG | -0.168
AAGATAAG | 0.0844
ACCTAGTA | -0.158

Sequence | PBM E-score
TTCTGCAA | 0.106
ATACGCAT | 0.195
ATATGCTC | 0.154
CATTCTGA | 0.142
GGATGGAC | -0.0795
ACAGTTCA | 0.232
CGCCTCCA | 0.0528
ATCACTGC | 0.0655
GTCTGTAA | -0.0329
CTACCCGC | 0.0191
CCTCCCGA | -0.203
TCACTGGA | 0.00252
GAACGATC | -0.0144
CACCCTAA | 0.103
GCGCTCAA | -0.23
CTCGACTC | 0.0826
ACCTACAA | 0.0597
GAAATTCC | 0.263
ATGGTAAG | -0.0494
TATCAGGA | 0.112
ACAGGTAC | -0.0953
AAATAGTT | 0.227

Sequence | PBM E-score
AACGCGCC | -0.00177
CAAACATC | 0.123
CCCATTGC | -0.0693
GCGGACGC | -0.0534
AGGGTTAC | -0.139
CGGCCCCG | -0.384
AAATCAAT | 0.23
GCAGGCAA | 0.00984
CTATCTAA | 0.0148
CGATGCAC | -0.166
CAACCGCG | 0.153
AACAAGAT | 0.221
AGTCCAGG | -0.111
CACTCTAG | -0.0846
CCCGGAGG | -0.202
AGGGTTTC | -0.229
GCTGTCAC | -0.0684
CGGTTCCA | -0.06
GATCACAC | -0.135
CTGAAAAA | 0.0159
AGAACGGG | -0.173
ACACCGCC | -0.104
